Laboratory results from publication PMC4336329 (PLoS ONE, 2015).
The campaign covered roughly 310,000 compounds. About 14,000 (4.5%) showed an effect of 50% or more. The effect is printed as a negative number. Some of the results follow.

These compounds were tested against human ether-à-go-go-related gene (hERG) potassium channel (human, UniProt Q12809) (assay: primary screen, population patch clamp on CHO cells stably expressing hERG).
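Also: peak tail current of the secondary pulse compared with the same well before compound.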

human ether-à-go-go-related gene (hERG) potassium channel, sequence (Q12809 whole entry, looked up): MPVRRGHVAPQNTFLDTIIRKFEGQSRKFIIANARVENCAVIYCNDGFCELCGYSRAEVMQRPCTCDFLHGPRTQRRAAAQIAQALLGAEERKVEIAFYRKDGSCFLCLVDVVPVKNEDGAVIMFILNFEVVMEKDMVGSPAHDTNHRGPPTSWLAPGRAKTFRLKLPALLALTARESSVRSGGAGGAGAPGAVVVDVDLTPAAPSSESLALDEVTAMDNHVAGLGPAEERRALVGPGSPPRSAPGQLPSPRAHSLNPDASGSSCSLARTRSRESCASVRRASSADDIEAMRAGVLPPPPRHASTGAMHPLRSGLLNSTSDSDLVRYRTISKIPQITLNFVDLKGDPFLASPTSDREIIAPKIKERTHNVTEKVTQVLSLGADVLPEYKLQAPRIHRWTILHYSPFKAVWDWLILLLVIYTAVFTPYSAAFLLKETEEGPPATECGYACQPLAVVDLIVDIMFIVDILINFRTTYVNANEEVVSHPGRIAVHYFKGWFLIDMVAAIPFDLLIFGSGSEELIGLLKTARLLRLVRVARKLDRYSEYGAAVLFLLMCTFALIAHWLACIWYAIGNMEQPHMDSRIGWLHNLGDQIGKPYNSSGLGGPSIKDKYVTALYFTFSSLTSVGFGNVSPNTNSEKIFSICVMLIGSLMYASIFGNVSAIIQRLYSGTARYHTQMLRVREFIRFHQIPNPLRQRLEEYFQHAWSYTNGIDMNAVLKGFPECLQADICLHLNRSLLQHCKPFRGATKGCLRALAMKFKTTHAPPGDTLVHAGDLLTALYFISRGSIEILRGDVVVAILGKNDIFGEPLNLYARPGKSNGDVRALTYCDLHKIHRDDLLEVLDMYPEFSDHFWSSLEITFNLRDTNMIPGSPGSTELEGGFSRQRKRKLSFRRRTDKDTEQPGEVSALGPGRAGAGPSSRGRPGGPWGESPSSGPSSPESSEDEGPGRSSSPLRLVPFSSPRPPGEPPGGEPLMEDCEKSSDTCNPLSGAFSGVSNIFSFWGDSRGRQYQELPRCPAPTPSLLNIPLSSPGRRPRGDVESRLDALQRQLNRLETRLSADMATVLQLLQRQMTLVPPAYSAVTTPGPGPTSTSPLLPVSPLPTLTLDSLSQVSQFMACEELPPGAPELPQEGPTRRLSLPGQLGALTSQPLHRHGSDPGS

Structure (SMILES)	hERG current change (%, negative = inhibition) at 10uM
CCn1ncc(C2=NOC(C(=O)Nc3cnn(C45CC6CC(CC(C6)C4)C5)c3)C2)c1C (stereo not shown)	-21.8%
CC1(C)CC(=O)c2cnc(NC(=O)Cc3ccc(Cl)cc3)nc2C1	-10.8%
CCCCOP(=O)(c1ccc(N(C)C)cc1)C(O)c1ccc(C(C)C)cc1 (stereo not shown)	-13%
Cc1cc(Cl)ccc1OCCCC(=O)NCCc1nnc2ccccn12	-18.4%
Cc1ccc(CNS(=O)(=O)c2c(C(=O)N3CCCCCC3)c(C)n(C)c2C)cc1	10.9%
CCOC(=O)c1ccc(NC(=O)CSc2nnc(CNc3ccc(OC)cc3)n2C)cc1	-2.57%
Cc1ccc(-c2noc(CSc3nnc(-c4ccccc4)n3C)n2)cc1	-3.5%
COC(=O)CCCC1=CC2=CC(=O)C(C)(OC(=O)c3cccs3)C(=O)C2=CN1CC(C)C (stereo not shown)	-5.68%
Cc1cc2occ(CC(=O)NNC(=O)c3ccccc3)c2cc1C	8.99%
C/C(CCN1CCCCc2nc(C)c(C)cc21)=N\O[C@@H](C)CN1CCCCc2nc(C)c(C)cc21	-48.4%
COc1ccc(OC)c(C(O)CNC(=O)CN)c1.Cl (stereo not shown)	0.471%
COc1ccc(C)cc1NS(=O)(=O)c1cccc2nonc12	-10.7%
Cc1ccnc2nc(C(=O)OC(C)C(=O)NCc3ccccc3)nn12 (stereo not shown)	-4.57%
COc1ccc(C2CC(c3ccc(Cl)cc3Cl)Nc3nc(N)nn32)cc1OC (stereo not shown)	-18.7%
Cc1nn(CCCC(=O)Nc2cnn(Cc3ccc(F)cc3)c2)c(C)c1[N+](=O)[O-]	-1.27%
CS(=O)(=O)N(CCc1ccccc1)CC(=O)N1CCN(c2ccc(F)cc2)CC1	-33.3%
Cc1sc2nc(CSCC(=O)Nc3ccccc3C#N)[nH]c(=O)c2c1C	2.5%
COC(=O)COc1ccc(NC(=O)C(c2ccccc2)c2ccccc2)cc1	3.4%
CCNS(=O)(=O)c1ccc(CCC(=O)NCc2ccc3c(c2)OCO3)cc1	-0.364%
CCNc1nc(SCC(=O)Nc2ccccc2)nc(N2CCOCC2)n1	8.03%
Cc1cc([N+](=O)[O-])cnc1N1CCOCC1	11.8%
COC(=O)C(C)Sc1nc2ccsc2c(=O)n1Cc1ccccc1 (stereo not shown)	-39.1%
CC(O)CNC(=O)Cc1cc(=O)[nH]c(=O)[nH]1 (stereo not shown)	23.9%
Cc1occc1C(=O)NNS(=O)(=O)c1ccc(Cl)cc1	7.64%
Cc1cc(C(F)(F)F)n2ncc(-c3ccc(F)cc3)c2n1	14.1%
O=C(Cn1ncc2c([nH]c3ccccc32)c1=O)NCCc1ccccc1	3.06%
CCN(C(=O)COC(=O)c1c(C)nsc1NC)c1ccccc1	-11.9%
CC(C)Oc1ccccc1/C=N/NC(=O)c1ccccc1Cl	-12.9%

Structure (SMILES)	hERG current change (%, negative = inhibition) at 10uM
CCS(=O)(=O)N1CCN=C1SCc1cccnc1	14.5%
Cc1cccc(-n2ncc3c2CCCC3NC(=O)CN2CCOC2=O)c1C (stereo not shown)	21.4%
COc1cccc(C(=O)Nc2ccc(S(=O)(=O)N3CCCCC3)cc2)c1OC	-1.04%
Cn1cc(C(=O)N2CCCC(Nc3ccc(F)cc3)C2)c2ccccc21 (stereo not shown)	-21.1%
Cc1ccc(CC(=O)N2CC(C)OC(C)C2)cc1 (stereo not shown)	9.85%
Cc1ccc(S(=O)(=O)NCC2CCC(C(=O)NCCCN3CCOCC3)CC2)cc1 (stereo not shown)	10.8%
COc1cc(C(=O)NCc2nnc(SCC(=O)Nc3cc(C)on3)o2)cc(OC)c1OC	16.6%
O=C(OCC(=O)N1CCOCC1)c1ccccc1SCC(=O)N1CCCC1	3.13%
CCCOc1ccc(C(CC(=O)O)NS(=O)(=O)c2ccc(NC(C)=O)cc2)cc1 (stereo not shown)	9.49%
CCc1nnc(NC(=O)c2ccc(N3C(=O)CCC3=O)cc2)s1	11.7%
Cc1ccc(NC(=S)Nn2cnnc2)cc1	14.5%
CN(C(=O)CN(CCO)CC(=O)N(C)C(C)(C)Cc1ccccc1)C(C)(C)Cc1ccccc1	-3.95%
CCc1nnc(NC(=O)C2Cc3ccccc3CN2S(=O)(=O)c2cccs2)s1 (stereo not shown)	9.85%
CC(C)NC(C)Cc1ccc(I)cc1.Cl (stereo not shown)	-38.2%
O=C(CSc1n[nH]c(=O)[nH]c1=O)c1ccccc1[N+](=O)[O-]	16.4%
COc1ccc(NC(=O)COC(=O)c2ccc(-n3cnnn3)cc2)cc1Cl	13.4%
COCCCNC(=S)NNC(=O)c1ccc(S(=O)(=O)N2CCC(C)CC2)cc1	11.8%
COc1ccc(CC(=O)O/N=C(\N)c2ccccc2)cc1OC	6.1%
CC(=O)N(C)c1ccc(NC(=O)Nc2cccc3ccccc23)cc1	-2.88%
Cc1ccc(Nc2nc(-c3ccc(C)cc3)c(CC(=O)O)s2)cc1	1.16%
Cc1ccc(-c2nnc(Nc3ccc(C(=O)N(C)C)cc3)c3ccccc23)cc1S(=O)(=O)NCC1CCCO1 (stereo not shown)	-26.4%
CS(=O)(=O)NCCNC(=O)c1cc(OCC(F)(F)F)ccc1OCC(F)(F)F	-9.74%
COC(=O)CN1C(=O)[C@H]2[C@@H](c3ccc(C)o3)N3C(=O)CN(Cc4ccccc4)C(=O)[C@@]3(Cc3ccccc3)[C@H]2C1=O	-9.75%
COc1ccc(/C=N/n2cnc3c([nH]c4ccccc43)c2=O)cc1CO	11.2%
CC1CCN(CCCCOc2ccc(Cl)cc2)CC1.O=C(O)C(=O)O	-71.7%
CN(C)CCCNC(=S)Nc1ccc(Br)cc1	-11.6%
CCOc1ccc(C2CC(=O)N(Nc3ccc([N+](=O)[O-])cc3[N+](=O)[O-])C2=O)cc1 (stereo not shown)	-51.7%
